For 27 molecules, Kd results are on record in US20160031967A1 (Affibody, published 2016).

For experiment [1], the target named is T1, human FcRn (Biorbyt, cat. no. orb84388) (human, UniProt P55899 24-297; P61769 21-119, limits assumed).
T1 construct: Bought protein; Biotinylated in AlphaLISA and ELISA; also called biotinylated human FcRn
The experiment in a line: ELISA titration of biotinylated human FcRn, pH 7.4. How it is done: (§1) ELISA KD analysis of FcRn binding Z variants: A selection of FcRn binders was subjected to an analysis of the response against a dilution series of biotinylated human FcRn using ELISA at both pH 6.0 and pH 7.4 as described above. […] As a background control, all Z variants were also assayed with no target protein added. […] Data were analyzed using GraphPad Prism 5 and non-linear regression and KD values (the half maximal effective concentration) were calculated.
(§2) Periplasm samples were incubated with a serial dilution of biotinylated human FcRn.

Experiment [2] addresses T1, human FcRn (Biorbyt, cat. no. orb84388). Nature of the experiment: ELISA titration of biotinylated human FcRn, pH 6.0. How it is done: as §1, §2
In general terms: In an ELISA, binding on a coated surface is turned into a signal by an enzyme label.

T1 sequence (P55899 24-297 limits assumed, chain 1 of 2): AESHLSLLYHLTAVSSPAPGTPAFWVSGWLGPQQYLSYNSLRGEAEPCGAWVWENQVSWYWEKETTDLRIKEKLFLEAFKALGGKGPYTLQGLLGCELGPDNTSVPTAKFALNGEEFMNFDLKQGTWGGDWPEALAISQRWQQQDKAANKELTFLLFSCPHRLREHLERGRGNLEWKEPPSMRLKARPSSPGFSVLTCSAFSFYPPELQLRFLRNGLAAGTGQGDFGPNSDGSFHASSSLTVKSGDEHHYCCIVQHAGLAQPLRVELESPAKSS
T1 sequence (P61769 21-119 limits assumed, chain 2 of 2, further chain): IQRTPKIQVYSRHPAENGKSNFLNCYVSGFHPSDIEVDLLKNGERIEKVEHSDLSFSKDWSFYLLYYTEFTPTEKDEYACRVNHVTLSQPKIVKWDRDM

B1: Z13706-ABD fusion (designed binder)
chain: AQHDEALEVDAKYAKEEDSAAHEIRWLPNLTFDQRVAFIHKLKDDPSQSSELLSEAKKLNDSQAPKVDYVLAEAKVLANRELDKYGVSDYYKNLINNAKTVEGVKALIDEILAALPYVPG
notes: domain: GA3; periplasmic Z-ABD fusion
For orientation: Kd means the equilibrium constant for the complex coming apart. Consider B1, for which the Kd in experiment [1] was 6.4 nM; in experiment [2] it was 2 nM.

B2: Z13742-ABD fusion (designed binder)
chain: AQHDEALEVDAKYAKELSTAAHEIRWLPNLTFDQRVAFIHKLRDDPSQSSELLSEAKKLNDSQAPKVDYVLAEAKVLANRELDKYGVSDYYKNLINNAKTVEGVKALIDEILAALPYVPG
notes: as for B1
With B2, the Kd in experiment [1] came out at 7.6 nM; in experiment [2] it was 2.4 nM.

B3: Z13747-ABD fusion (designed binder)
chain: AQHDEALEVDAKYAKEIEEAGHEIRWLPNLTFDQRVAFIHKLRDDPSQSSELLSEAKKLNDSQAPKVDYVLAEAKVLANRELDKYGVSDYYKNLINNAKTVEGVKALIDEILAALPYVPG
notes: as for B1
Take B3: the Kd in experiment [1] came out at 2.3 nM; in experiment [2] it was 1.3 nM.

B4: Z13720-ABD fusion (designed binder)
chain: AQHDEALEVDAKYAKEQSAAAHEIRWLPNLTFDQRVAFIHKLNDDPSQSSELLSEAKKLNDSQAPKVDYVLAEAKVLANRELDKYGVSDYYKNLINNAKTVEGVKALIDEILAALPYVPG
notes: as for B1
Regarding B4, the Kd came out at 450 nM in experiment [1] and 2.5 nM in experiment [2].

B5: Z13777-ABD fusion (designed binder)
chain: AQHDEALEVDAKYAKESATAAHEIRWLPNLTFDQRVAFIHKLRDDPSQSSELLSEAKKLNDSQAPKVDYVLAEAKVLANRELDKYGVSDYYKNLINNAKTVEGVKALIDEILAALPYVPG
notes: as for B1
B5: the results for the Kd in experiment [1] and in experiment [2] were 4.6 nM and 2.4 nM, respectively.

B6: Z13736-ABD fusion (designed binder)
chain: AQHDEALEVDAKYAKEWAEAAHEIRWLPNLTFDQRVAFIHKLRDDPSQSSELLSEAKKLNDSQAPKVDYVLAEAKVLANRELDKYGVSDYYKNLINNAKTVEGVKALIDEILAALPYVPG
notes: as for B1
In the case of B6, the Kd in experiment [1] amounted to 3 nM; in experiment [2], 1.7 nM.

B7: Z13773-ABD fusion (designed binder)
chain: AQHDEALEVDAKYAKEYVDAGHEIRWLPNLTFDQRVAFIRKLRDDPSQSSELLSEAKKLNDSQAPKVDYVLAEAKVLANRELDKYGVSDYYKNLINNAKTVEGVKALIDEILAALPYVPG
notes: as for B1
For the molecule B7, the values for the Kd in experiment [1] and in experiment [2] were 4.9 nM and 2.5 nM, respectively.

B8: Z13749-ABD fusion (designed binder)
chain: AQHDEALEVDAKYAKELQTASHEIRWLPNLTFDQRVAFIHKLRDDPSQSSELLSEAKKLNDSQAPKVDYVLAEAKVLANRELDKYGVSDYYKNLINNAKTVEGVKALIDEILAALPYVPG
notes: as for B1
Consider B8, for which the Kd in experiment [1] turned out to be 12 nM; in experiment [2], 2.8 nM.

B9: Z13842-ABD fusion (designed binder)
chain: AQHDEALEVDAKYAKEISQAAHEIRWLPNLTFDQRVAFIHKLRDDPSQSSELLSEAKKLNDSQAPKVDYVLAEAKVLANRELDKYGVSDYYKNLINNAKTVEGVKALIDEILAALPYVPG
notes: as for B1
B9: the Kd came to 5.5 nM in experiment [1] and 2.2 nM in experiment [2].

B10: Z13808-ABD fusion (designed binder)
chain: AQHDEALEVDAKYAKETANAAHEIRWLPNLTFDQRVAFIHKLRDDPSQSSELLSEAKKLNDSQAPKVDYVLAEAKVLANRELDKYGVSDYYKNLINNAKTVEGVKALIDEILAALPYVPG
notes: as for B1
For the molecule B10, the Kd in experiment [1] is 5.5 nM; in experiment [2], 2.4 nM.

B11: Z13758-ABD fusion (designed binder)
chain: AQHDEALEVDAKYAKEVQEAAHEIRWLPNLTFDQRVAFIHKLWDDPSQSSELLSEAKKLNDSQAPKVDYVLAEAKVLANRELDKYGVSDYYKNLINNAKTVEGVKALIDEILAALPYVPG
notes: as for B1
As to B11, the Kd is 6.5 nM in experiment [1] and 1.9 nM in experiment [2].

B12: Z13721-ABD fusion (designed binder)
chain: AQHDEALEVDAKYAKEKERAAHEIRWLPNLTFDQRVAFIHKLRDDPSQSSELLSEAKKLNDSQAPKVDYVLAEAKVLANRELDKYGVSDYYKNLINNAKTVEGVKALIDEILAALPYVPG
notes: as for B1
B12: the Kd in experiment [1] came to 2.9 nM; in experiment [2] it was 1.9 nM.

B13: Z13792-ABD fusion (designed binder)
chain: AQHDEALEVDAKYAKEIEVAAHEIRWLPNLTFDQRVAFIHKLRDDPSQSSELLSEAKKLNDSQAPKVDYVLAEAKVLANRELDKYGVSDYYKNLINNAKTVEGVKALIDEILAALPYVPG
notes: as for B1
B13: the figures for the Kd in experiment [1] and in experiment [2] were 2.9 nM and 2 nM, respectively.

B14: Z13728-ABD fusion (designed binder)
chain: AQHDEALEVDAKYAKEIENAAHEIRWLPNLTFDQRVAFIWKLRDDPSQSSELLSEAKKLNDSQAPKVDYVLAEAKVLANRELDKYGVSDYYKNLINNAKTVEGVKALIDEILAALPYVPG
notes: as for B1
As to B14, the Kd turned out to be 6.7 nM in experiment [1] and 2.6 nM in experiment [2].

B15: Z13740-ABD fusion (designed binder)
chain: AQHDEALEVDAKYAKESQEAGHEIRWLPNLTFDQRVAFIHKLRDDPSQSSELLSEAKKLNDSQAPKVDYVLAEAKVLANRELDKYGVSDYYKNLINNAKTVEGVKALIDEILAALPYVPG
notes: as for B1
Turning to B15, the Kd in experiment [1] worked out at 5 nM; in experiment [2], 2 nM.

B16: Z13750-ABD fusion (designed binder)
chain: AQHDEALEVDAKYAKEQDSAAHEIRWLPNLTFDQRVAFIRKLRDDPSQSSELLSEAKKLNDSQAPKVDYVLAEAKVLANRELDKYGVSDYYKNLINNAKTVEGVKALIDEILAALPYVPG
notes: as for B1
Consider B16, for which the Kd in experiment [1] came to 8.4 nM; in experiment [2] it was 2.7 nM.

B17: Z13776-ABD fusion (designed binder)
chain: AQHDEALEVDAKYAKEIQEAGHEIRWLPNLTFDQRVAFIHKLRDDPSQSSELLSEAKKLNDSQAPKVDYVLAEAKVLANRELDKYGVSDYYKNLINNAKTVEGVKALIDEILAALPYVPG
notes: as for B1
B17: the results for the Kd in experiment [1] and in experiment [2] were 5.5 nM and 2.2 nM, respectively.

B18: Z13751-ABD fusion (designed binder)
chain: AQHDEALEVDAKYAKESASAGHEIRWLPNLTFDQRVAFIHKLRDDPSQSSELLSEAKKLNDSQAPKVDYVLAEAKVLANRELDKYGVSDYYKNLINNAKTVEGVKALIDEILAALPYVPG
notes: as for B1
In the case of B18, the Kd in experiment [1] turned out to be 3.8 nM; in experiment [2], 2 nM.

B19: Z13719-ABD fusion (designed binder)
chain: AQHDEALEVDAKYAKEAKSAAHEIRWLPNLTFDQRVAFIHKLRDDPSQSSELLSEAKKLNDSQAPKVDYVLAEAKVLANRELDKYGVSDYYKNLINNAKTVEGVKALIDEILAALPYVPG
notes: as for B1
As for B19, the values for the Kd in experiment [1] and in experiment [2] were 7.3 nM and 2.6 nM, respectively.

B20: Z13823-ABD fusion (designed binder)
chain: AQHDEALEVDAKYAKEHDDAAHEIRWLPNLTFDQRVAFIHKLRDDPSQSSELLSEAKKLNDSQAPKVDYVLAEAKVLANRELDKYGVSDYYKNLINNAKTVEGVKALIDEILAALPYVPG
notes: as for B1
B20: the Kd in experiment [1] is 3.8 nM; in experiment [2], 2.9 nM.

B21: Z13708-ABD fusion (designed binder)
chain: AQHDEALEVDAKYAKEQKAAGHEIRWLPNLTFDQRVAFIHKLRDDPSQSSELLSEAKKLNDSQAPKVDYVLAEAKVLANRELDKYGVSDYYKNLINNAKTVEGVKALIDEILAALPYVPG
notes: as for B1
For the molecule B21, the results for the Kd in experiment [1] and in experiment [2] were 4.4 nM and 1.9 nM, respectively.

B22: Z13799-ABD fusion (designed binder)
chain: AQHDEALEVDAKYAKESELAAHEIRWLPNLTFDQRVAFIWKLRDDPSQSSELLSEAKKLNDSQAPKVDYVLAEAKVLANRELDKYGVSDYYKNLINNAKTVEGVKALIDEILAALPYVPG
notes: as for B1
Consider B22, for which the Kd in experiment [1] is 5.6 nM; in experiment [2], 1.9 nM.

B23: Z13838-ABD fusion (designed binder)
chain: AQHDEALEVDAKYAKEISDAAHEIRWLPNLTFDQRVAFIHKLRDDPSQSSELLSEAKKLNDSQAPKVDYVLAEAKVLANRELDKYGVSDYYKNLINNAKTVEGVKALIDEILAALPYVPG
notes: as for B1
In the case of B23, the figures for the Kd in experiment [1] and in experiment [2] were 5.4 nM and 2.6 nM, respectively.

B24: Z13782-ABD fusion (designed binder)
chain: AQHDEALEVDAKYAKEREQASHEIRWLPNLTFDQRVAFIHKLRDDPSQSSELLSEAKKLNDSQAPKVDYVLAEAKVLANRELDKYGVSDYYKNLINNAKTVEGVKALIDEILAALPYVPG
notes: as for B1
Consider B24, for which the Kd in experiment [1] was determined as 4.2 nM; in experiment [2], 2.2 nM.

B25: Z13796-ABD fusion (designed binder)
chain: AQHDEALEVDAKYAKERAEAAHEIRWLPNLTFDQRVAFIHKLRDDPSQSSELLSEAKKLNDSQAPKVDYVLAEAKVLANRELDKYGVSDYYKNLINNAKTVEGVKALIDEILAALPYVPG
notes: as for B1
Consider B25, for which the equilibrium dissociation constant (Kd) stood at 4.2 nM in experiment [1] and 2.3 nM in experiment [2].

B26: Z13824-ABD fusion (designed binder)
chain: AQHDEALEVDAKYAKEWYSAAHEIRWLPNLTFDQRVAFIHKLRDDPSQSSELLSEAKKLNDSQAPKVDYVLAEAKVLANRELDKYGVSDYYKNLINNAKTVEGVKALIDEILAALPYVPG
notes: as for B1
For B26, the Kd in experiment [1] came out at 3.8 nM; in experiment [2], 1.9 nM.

B27: Z13725-ABD fusion (designed binder)
chain: AQHDEALEVDAKYAKEWDEAAHEIRWLPNLTFDQRVAFIHKLKDDPSQSSELLSEAKKLNDSQAPKVDYVLAEAKVLANRELDKYGVSDYYKNLINNAKTVEGVKALIDEILAALPYVPG
notes: as for B1
For B27, the Kd in experiment [1] is 4.9 nM; in experiment [2] it was 1.8 nM.
